From publication PMC5473854, “Structure of the human TRiC/CCT Subunit 5 associated with hereditary sensory neuropathy” (Scientific Reports, 2017)

Molecular target: the molecule itself
Experiment: crystal structure; crystallised in complex with 5.0 mM ADP, closed state; sitting-drop vapor diffusion; 0.1 M sodium acetate, 0.04 M citric acid, 0.06 M Bis-Tris propane pH 6.4, 25% (w/v) PEG 400; space group P 4 21 2, 4 subunits per asymmetric unit

B1: human CCT[…]R mutant, homo-oligomeric complex (natural protein)
chain: not shown
notes: T-complex protein 1 subunit epsilon (TRiC/CCT subunit 5, CCT5), human, with the disease-associated mutation H147R (hereditary sensory neuropathy); made from the CCT5 plasmid; Crystallised with ADP; same double homo-octameric ring arrangement as the wild type; The mutation occurs in patients (autosomal recessive mutilating sensory neuropathy); The His tag is surmised from the Histrap step; also …
stoichiometry N: 16 subunits
